Here are results for 29 compounds from the antibiotic and cytotoxicity screens of Wong et al. (2023).

Some of the results follow.

One experiment has as its system HepG2. Description: cytotoxicity call (relative viability < 0.9). As to conditions: 10 µM.
As for `C[C@@H]1CN([C@@H](C)CO)C(=O)Cc2cc(NC(=O)Nc3ccccc3)ccc2O[C@H]1CN(C)S(=O)(=O)c1cn(C)cn1`, the cytotoxicity call was “inactive”.
On to `C[C@@H]1CN([C@H](C)CO)C(=O)c2cccc(NC(=O)c3nc4ccccc4s3)c2O[C@@H]1CN(C)Cc1ccc(Cl)c(Cl)c1`, for which the cytotoxicity call was “inactive”.
For `C[C@H]1CN([C@@H](C)CO)C(=O)Cc2cc(NC(=O)CCN3CCOCC3)ccc2O[C@@H]1CN(C)C(=O)NC1CCCCC1`, the cytotoxicity call was “inactive”.
For the compound `CC1(C)S[C@@H]2[C@H](NC(=O)[C@H](N)c3ccccc3)C(=O)N2[C@H]1C(=O)OCOC(=O)[C@@H]1N2C(=O)C[C@H]2S(=O)(=O)C1(C)C`, the cytotoxicity call is “inactive”.
Take `Cc1noc(C)c1NC(=O)Nc1cccc2c1O[C@H](CN(C)Cc1ccc(-c3ccccc3)cc1)[C@@H](C)CN([C@H](C)CO)C2=O`: the cytotoxicity call was “inactive”.
On the same count and under the same terms, then `C[C@@H]1CN([C@@H](C)CO)C(=O)c2c(c3ccccc3n2C)-c2ccccc2CO[C@H]1CN(C)S(=O)(=O)c1ccc(C(F)(F)F)cc1`, with “inactive”; and `C[C@@H]1CN([C@@H](C)CO)S(=O)(=O)c2ccc(-c3ccccc3F)cc2O[C@@H]1CN(C)S(C)(=O)=O`, with “inactive”; and `C[C@H]1CN([C@@H](C)CO)C(=O)c2ccccc2-c2ccccc2CO[C@@H]1CN(C)C(=O)Nc1ccc(-c2ccccc2)cc1`, with “inactive”.
The same measure, in the same setting: then `C[C@@H]1CCCCO[C@H](CN(C)Cc2ccc3c(c2)OCO3)[C@@H](C)CN([C@H](C)CO)C(=O)c2cc(NC(=O)Nc3ccc(C(F)(F)F)cc3)ccc2O1`, with “active”; and `Cc1cc(C(=O)Nc2cccc3c2O[C@@H](CN(C)C(=O)Nc2c(C)noc2C)[C@H](C)CN([C@H](C)CO)C3=O)n(C)n1`, with “inactive”.

For the next experiment, the system named is S. aureus RN4220. Description: growth inhibition call (relative growth <= 0.2). The note with it: 50 µM.
In the case of `CC1(C)OC2COC3(COS(N)(=O)=O)OC(C)(C)OC3C2O1` (centres undefined), the growth inhibition call is “inactive”.
On to `C=C1CCC(O)CC1=CC=C1CCCC2(C)C1CCC2C(C)C=CC(C)C(C)C` (centres undefined), for which the growth inhibition call was “inactive”.
The same measure, in the same setting: then `C[C@@H]1CN([C@H](C)CO)C(=O)Cc2cc(NS(=O)(=O)c3ccc(F)cc3)ccc2O[C@@H]1CN(C)Cc1ccc(Oc2ccccc2)cc1`, with “inactive”; and `C[C@H]1CCCCO[C@H](CN(C)C(=O)Nc2ccc(C(F)(F)F)cc2)[C@@H](C)CN([C@@H](C)CO)C(=O)c2cc(NC(=O)Cc3ccccc3)ccc2O1`, with “inactive”.
For `C[C@H](CO)N1C[C@H](C)[C@@H](CN(C)C(=O)Nc2cccc3ccccc23)OCCCC[C@H](C)Oc2ccc(NC(=O)Nc3ccc4c(c3)OCO4)cc2C1=O`, the growth inhibition call is “inactive”.
With `C[C@@H]1CN([C@@H](C)CO)C(=O)c2cc(NC(=O)CCN3CCOCC3)ccc2O[C@H]1CN(C)S(=O)(=O)c1ccc(Cl)cc1`, the growth inhibition call was “inactive”.
Consider `COCCNC(=O)C[C@H]1CC[C@H]2[C@H](COc3ccc(NC(=O)Nc4cccc(F)c4)cc3C(=O)N2C)O1`, for which the growth inhibition call is “inactive”.
As for `O=C(CN1CCOCC1)NCC[C@@H]1CC[C@H](NS(=O)(=O)c2ccc(Cl)cc2)[C@@H](CO)O1`, the growth inhibition call was “inactive”.
For the compound `C[C@@H]1CN([C@H](C)CO)C(=O)c2cc(NS(C)(=O)=O)ccc2O[C@H]1CN(C)C(=O)NC1CCCCC1`, the growth inhibition call is “inactive”.
In the case of `Cc1ccc(S(=O)(=O)N[C@@H]2CC[C@@H](CCNC(=O)CN3CCOCC3)O[C@H]2CO)cc1`, the growth inhibition call was “inactive”.
With `CC(C)(C)c1ccc(NC(=O)c2ccc(C(C)(C)C)s2)cc1`, the growth inhibition call is “inactive”.
Regarding `CC(C)NC(=O)Nc1ccc2c(c1)C(=O)N([C@H](C)CO)C[C@H](C)[C@@H](CN(C)C(=O)Nc1ccc(F)cc1)OCCCC[C@@H](C)O2`, the growth inhibition call is “inactive”.
Regarding `Cc1noc(C)c1S(=O)(=O)Nc1ccc2c(c1)C(=O)N([C@@H](C)CO)C[C@@H](C)[C@@H](CN(C)Cc1ccccc1)O2`, the growth inhibition call is “inactive”.
Regarding `COC(=O)c1c(CC[C@@H](CO)NC(=O)N[C@@H](Cc2ccccc2)Cn2cc(C3(O)CCCC3)nn2)oc(C(=O)N2CCOCC2)c1C(=O)OC`, the growth inhibition call was “inactive”.
Turning to `C[C@@H]1CN([C@H](C)CO)C(=O)c2cc(NC(=O)Nc3ccc4c(c3)OCO4)ccc2O[C@@H](C)CCCCO[C@H]1CN(C)S(=O)(=O)c1ccc(Cl)cc1`, the growth inhibition call is “inactive”.
On the same count and under the same terms, to `C[C@@H]1CN([C@H](C)CO)S(=O)(=O)c2ccc(C#CCN(C)C)cc2O[C@@H]1CN(C)C` belongs “inactive”; to `CN1C(=O)c2cc(NC(=O)C3CCOCC3)ccc2OC[C@H]2O[C@H](CC(=O)NCCc3ccncc3)CC[C@H]21`, “inactive”.
Regarding `Cc1ccc(-c2cccc(C(=O)N[C@H]3CC[C@@H](N)CC3)c2)o1`, the growth inhibition call was “inactive”.
As to `Cc1ccc(S(=O)(=O)N(C)C[C@@H]2OCCCC[C@@H](C)Oc3ccc(NC(=O)Nc4ccc(C(F)(F)F)cc4)cc3C(=O)N([C@H](C)CO)C[C@H]2C)cc1`, the growth inhibition call is “inactive”.
